Source: PubChem BioAssay AID485344 (National Center for Advancing Translational Sciences (NCATS), 2010)
In all, about 340,000 compounds went through this assay and about 6,900 (2%) were called active. Cut-off read from the data, not from the text of the source: active = inhibition above about 30%; inactive = below that, where a call was filed. Only a part is listed here, and it is no random draw. Where no call is shown, the source filed none.

Each compound was assayed against D(2) dopamine receptor (Homo sapiens) (UniProt P14416) (assay: HTS Assay for Allosteric Antagonists of the Human D2 Dopamine Receptor: Primary Screen for Antagonists). Conditions: HEK293 TREx D2 cells, calcium flux, dopamine EC80; at 10 µM; stronger effect = higher value.
Procedure, shortened: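 HEK293 T-REx D2 cells, tet-induced, calcium dye no-wash. Cpd pintool add, 180 s kinetic, then EC80 DA, 180 s kinetic. Ca flux read.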
Note: 0% is about no effect.

UniProt P14416, sequence (P14416 whole entry, looked up): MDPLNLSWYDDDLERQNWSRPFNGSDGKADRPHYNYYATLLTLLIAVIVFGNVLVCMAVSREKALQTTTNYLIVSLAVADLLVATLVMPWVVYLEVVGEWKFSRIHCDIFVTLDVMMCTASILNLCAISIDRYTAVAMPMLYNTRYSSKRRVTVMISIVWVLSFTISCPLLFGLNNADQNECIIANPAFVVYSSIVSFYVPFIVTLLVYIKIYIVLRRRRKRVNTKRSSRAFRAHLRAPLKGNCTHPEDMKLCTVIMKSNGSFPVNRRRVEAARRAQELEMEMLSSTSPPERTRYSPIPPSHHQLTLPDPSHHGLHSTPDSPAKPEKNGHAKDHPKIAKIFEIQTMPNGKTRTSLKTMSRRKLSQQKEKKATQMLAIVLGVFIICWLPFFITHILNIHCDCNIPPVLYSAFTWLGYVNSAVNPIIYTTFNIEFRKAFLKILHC

Row | Structure (SMILES) | inhibition
1 | O=C(CC1C(=O)N(c2ccc(F)cc2)C(=O)N1Cc1ccc2c(c1)OCO2)Nc1ccc(F)cc1 (stereo not given) | 2.57%
2 | Cc1cc2c(cc1S(=O)(=O)CCC(=O)NC1CCC(C)CC1)OCC(=O)N2 (stereo not given) | -23.3%
3 | Cc1ccc(-c2nnc(NC(=O)c3ccc4c(c3)OCCO4)o2)c(C)c1 | 15.5%
4 | O=C1CC(c2nnc(Cc3ccc(Cl)cc3)o2)CN1c1ccccc1 (stereo not given) | -2.01%
5 | COc1ccccc1-c1nnc2n(CCc3ccccc3)c(=O)c3ccccc3n12 | 16.7%
6 | O=C(C[n+]1cc(-c2ccccc2)n2c1CCC2)N1c2ccccc2Sc2ccccc21 | active: 36.8%
7 | Cc1ccc(C)c(Cn2c(=O)n(Cc3ccc(C(=O)NC4CCN(Cc5ccccc5)CC4)cc3)c(=O)c3ccccc32)c1 | 18.9%
8 | Cc1cc2nc(-c3ccc(Cl)cc3)cc(C(F)(F)F)n2n1 | 0.554%
9 | O=S(=O)(NCCc1csc2nc(-c3ccc(Cl)cc3)nn12)c1ccc(Oc2ccccc2)cc1 | -4.24%
10 | Cc1ccccc1-c1nc(C(N)=O)c2c(n1)n(-c1ccc3c(c1)OCO3)c(=O)n2C | 5.52%
11 | CN(C)S(=O)(=O)c1ccc2c(c1)N(CC(=O)NCc1cccc(Br)c1)C(=O)CS2 | 12.3%
12 | O=C(NCc1ccco1)C1CCN(C(=O)N2CCOc3ccc(Cl)cc32)CC1 | -23.4%
13 | COc1ccc(S(=O)(=O)n2nc(C)c(S(=O)(=O)N3CCCCCC3)c2C)cc1OC | 22.2%
14 | COc1ccc(Cl)cc1S(=O)(=O)N1CCN(Cc2cccc(F)c2)CC1 | 6.83%
15 | CCCOc1ccc(C(=O)N(Cc2cccs2)c2ccc(C)cc2)cc1 | 2.75%
16 | COc1ccc(-c2c3c(nc4sc(C(=O)Nc5ccc(F)cc5)c(N)c24)CC(C)(C)CC3=O)cc1 | -0.661%
17 | CCOC(=O)c1c(C)oc2ncnc(NCCCN3CCN(c4cc(C)ccc4C)CC3)c12 | 14.1%
18 | CCOC(=O)c1ccc(NC(=O)C2CCN(C(=O)N3CC(C)Oc4ccc(C)cc43)CC2)cc1 (stereo not given) | 20.2%
19 | COc1cc(Cl)c(C)cc1Nc1nc2ccccc2nc1NS(=O)(=O)c1ccccc1 | 3.03%
20 | Cc1cccc(C(=O)Nc2ccc(-c3nc4cc(C(C)C)ccc4o3)cc2)c1 | -12.8%
21 | Cc1ccc(N2CCN(C(=O)NCc3noc4ccccc34)CC2C)cc1 (stereo not given) | -17.1%
22 | COc1ccccc1N1CCN(C(=O)c2cnn(-c3ccc(C)c(C)c3)c2C2CCN(C(=O)OC(C)(C)C)CC2)CC1 | 8.58%
23 | CCCCC(CC)CNC(=O)c1ccc2c(=O)n(CCOC)c(=O)[nH]c2c1 (stereo not given) | 25.7%
24 | CC(C)(C)c1ccc(C(=O)NCC(c2cccs2)S(=O)(=O)c2ccc(F)cc2)cc1 (stereo not given) | 28%
25 | CC(=O)c1cccc(S(=O)(=O)N2CCN(c3ccccc3F)CC2)c1 | 14.9%
